The supplement of paper PMC7726561
The full ranking holds about 1,100 sequences; the median of “thermal melting temperature (Tm) of peptide-HLA complex” is about 58, and the lowest 2% start at about 42. This is one part of the list.

Biological target: HLA-A*02:01
Assay: thermal melting temperature (Tm) of peptide-HLA complex; higher = more thermostable pHLA complex
Conditions: C1R-A*02:01
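Further: cell lysates heated 10 min at 37–73 °C, remaining pHLA pulled down with pan-class I antibody, peptides quantified by DIA-MS versus 37 °C, Tm where half the complex is lost.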

| Sequence | thermal melting temperature [°C] |
| --- | --- |
| AALPNVYEV | 62.9 |
| LLLPGPSAA | 45.2 |
| FLADPSAFVAA | 58.8 |
| TLSTVISKV | 58.3 |
| TLLVVVPKL | 54.9 |
| YAAPGGLIGV | 59.4 |
| TLLTKPVEI | 55.3 |
| FLIGPKLYEA | 60.8 |
| FLIEEQKIVV | 53.6 |
| ALLELVPWRA | 58 |
| VLTKEDFRL | 59.8 |
| YQIAEQFRV | 61.3 |
| RLMEPIYLVEI | 56.3 |
| ALLEMDARL | 57.9 |
| FLLGKEVSL | 63.8 |
| VMFGGKQVVV | 57.5 |
| IQDFEMPTV | 50.9 |
| KVLERVNAV | 55 |

| Sequence | thermal melting temperature [°C] |
| --- | --- |
| ALADLQEAVKL | 58.8 |
| RLFDEPQLA | 57.9 |
| GLDIDGIYRV | 57.5 |
| SVLVSPPAV | 56.5 |
| ALADIVWRA | 63 |
| RLPEAIEEV | 57.9 |
| GLLENIRQL | 58.9 |
| TVLPFVSTV | 55.7 |
| NLFRAPIYL | 49.9 |
| KLDDYVYYV | 63.3 |
| VLSSRLAFA | 58.9 |
| KLLEVNGVAL | 57.2 |
| YLGRLAHEV | 57.6 |
| ILDKKVEKV | 61.1 |
| ALLERGYSL | 60.4 |
| SIHDVTFQV | 57.4 |
| KLGDFGLLV | 60.4 |
| TLIGLSIKV | 56.7 |
